From the supplement of paper PMC11417369
Some of the results follow.

system: PfHDP1 homeodomain (GST-tagged); assay: gcPBM binding intensity (ln(normalized median fluorescence intensity)); higher = stronger DNA binding
Outline: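 For binding intensity, the highest Masliner-normalised natural-log median intensity across replicate spots of either probe orientation was taken. Protein bound to the array was stained with Alexa488 anti-GST antibody and scanned at 488 nm. The protein, GST-tagged P. falciparum DNA-binding domains from E. coli at about 25 μg on average, had been applied for 1 h to an Agilent 4 × 180k array of primer-extended double-stranded 36-bp intergenic genomic probes and negative controls.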

Sequence | gcPBM binding intensity (ln)
ATATATATATATAAAGGTACACATTTATTAAATATA [XGTACX_site7102] | 8.85
TCTTTAACAAGTTAAACACACATACCTATATACATA [CACACA_site7237] | 6.47
TGGTGATATACGAAATGTACGCAAATCACAAAATAA [XGTACX_site8836] | 6.2
CGCGTATAACGAAATTGTACAAAAAAAATTAAACAT [XGTACX_site6813] | 7.06
AAATAAAAATTAAAAAAATAGAAACGAATTGAATGC [TGCATGCA_negctrl_site365] | 6.69
ATATATATAAATATATGTACATAAATATATTTGTAA [XGTACX_site6715] | 6.71
AATTAAACTTTGTTTTTGTTTTTTTTTTTTATATTT [CACACA_negctrl_site1316] | 5.87
TTTTTTTTTATAAATACACACGTACGGGTGCATAAC [CACACA_site8444] | 10.1
ATCATGAAATATATTTGTACACATAATAATATAATA [XGTACX_site8798] | 6.86
ATTTGGCAGAAACACACACACACACCCACCCACATA [CACACA_site589] | 6.98
ATATATATATATATATGTACACAGGACAATAATCCT [XGTACX_site6383] | 9.31
TATTAAAAGGTGAGTACACACATATATGTGTATATA [CACACA_site7070] | 6.94
TTTTACTATACTTATGCACACAAGATATATACATAT [CACACA_site2968] | 9.66
TAAAAAAATTCATGCACACGAAATAAAAAGCACCTT [CACACA_site4667] | 8.88
TTTTTTAAAAGATAATATTTTATTAATGTATTCTCA [GTGCAC_negctrl_site598] | 5.7
AAACATAAATTTTATTGTACATTATATAGAATTTTC [XGTACX_site576] | 6.29
TTTTCATTTTTTCGTTGTACATAAATAATATATATT [XGTACX_site856] | 7.53
AATACATACATACATACACACATATATATATATTAT [CACACA_site3575] | 7.03
AATCATATTAGTATGGTGCAATATATATATAAATAT [GTGCAC_site9800] | 10.5
GGAATAGTCGGGTGCATACACACCTTAAATATAATA [CACACA_site1081] | 7.86
AAAGAAAATTCAATAGTGCATAAAAATATATATGTT [GTGCAC_site9680] | 8.62
CACATGTATTTATAGGTGCGTAAAAACACTTTATAT [GTGCAC_site9501] | 6.97

Sequence | gcPBM binding intensity (ln)
ACTAATTACTATAAAACACACATATATTTATTTATA [CACACA_site7263] | 6.72
TTATAGAAACATTGGTGTACGATATTTACTTCTTTC [XGTACX_site7314] | 5.91
GATAAACCATATATAACACACATATGAATATTGCAA [CACACA_site6735] | 6.73
ATATCATATATAAGTCGTACGATGAATAGAATTTTT [XGTACX_site7586] | 6.7
CACCCATACAGACATACACACACATATATATTAATA [CACACA_site8077] | 7.15
ACAGATGATCAAAATTGTACAGAGTTATATTATATT [XGTACX_site4642] | 6.39
TTATTTAAAAATAGCACACATTATATATATATATAT [CACACA_site5556] | 9.07
CTTATACAAAAAAAAAGTACATAACATAATAAGAAT [XGTACX_site6782] | 6.97
GCTTAGTTATATAACTGTACTATTTTTATTTATATG [XGTACX_site884] | 6.54
CTCATAGTTGGGTGCACACAAAAAATTAAAAAAATA [CACACA_site3032] | 10.3
AATAAGATAAGGAAAAGTACTTATAATTAAACTAAT [XGTACX_site1850] | 7.84
AAATATAAGTAAATAAATAAATATATAAATATATAA [TGCATGCA_negctrl_site441] | 6.03
AAATACATACATTAATGTACAAATAGAAACACTCTT [XGTACX_site1512] | 6.85
ATAAAGTAAGAAGAAATAATGATTTTCATGGAAAAC [XGTACX_negctrl_site322] | 5.91
ATACACTAGAAAATTTTATAGTATTATTAATGTTAA [GTGCAC_negctrl_site101] | 6.22
TTTTTATTCGTTAAATGTACAAAAAAAATGTTATAT [XGTACX_site2804] | 6.45
ATACCTCAAATTGATACACACAAAAAAAGTAAATTA [CACACA_site3134] | 6.5
TTTTACTATACTTATGCACACAAGATAAATACATAT [CACACA_site5619] | 10.3
CTATTTTAATATTTTACACACCATGTAAAATATATA [CACACA_site5732] | 6.57
TATCATCTTAATATCGTGCACATTTATAGAACGAAA [GTGCAC_site9992] | 9.74
TATTATTCCATGTGAAGTACAGAAATATAAATAAAT [XGTACX_site5106] | 5.96
CTTTTAAAAAAATTCATGCACACGAAATAAAAAGCA [CACACA_site929] | 8.99
